Results taken from PubChem BioAssay AID1468 (National Center for Advancing Translational Sciences (NCATS), 2008).
Several values for one entry are separate records, joined by “and”; a condition that tells them apart may be missing. Identical values can stand only once. About 1,100 (0.39%) of roughly 280,000 compounds were called active. The inconclusive results got no clear call from the source; some entries with a clear call stand among them for comparison. Calls follow the shape of the dose curve; as a rule, active = well fitted inhibition curve with a large enough effect; inconclusive = small, poorly fitted or top-dose-only effect, or effect the other way; inactive = flat fitted curve, though single readings scatter. Where the call is inconclusive, the potency comes from a doubtful curve fit.

Target: Microtubule-associated protein tau (Homo sapiens) (UniProt P10636)
Test: qHTS for Inhibitors of Tau Fibril Formation, Fluorescence Polarization; also: nearly all actives have a fitted effect of over 55% in size
Details: K18 P301L tau heparin fibrillization, Alexa594 FP, 6 h; series mostly up to 57.7 µM
Summary of the method: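 Read-out: fluorescence polarization of Alexa 594-labeled tau (0.24 uM), 555 nm excitation, 632 nm emission. Mixtures held 15 uM unlabeled K18 P301L, compound and 20 uM heparin, pH 7 acetate buffer, incubated 6 hr at 37 C.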
Potency is read from the fitted curve at half-maximal effect; tags tell the direction and shape of the fitted curve.

UniProt P10636, sequence (P10636 whole entry, looked up): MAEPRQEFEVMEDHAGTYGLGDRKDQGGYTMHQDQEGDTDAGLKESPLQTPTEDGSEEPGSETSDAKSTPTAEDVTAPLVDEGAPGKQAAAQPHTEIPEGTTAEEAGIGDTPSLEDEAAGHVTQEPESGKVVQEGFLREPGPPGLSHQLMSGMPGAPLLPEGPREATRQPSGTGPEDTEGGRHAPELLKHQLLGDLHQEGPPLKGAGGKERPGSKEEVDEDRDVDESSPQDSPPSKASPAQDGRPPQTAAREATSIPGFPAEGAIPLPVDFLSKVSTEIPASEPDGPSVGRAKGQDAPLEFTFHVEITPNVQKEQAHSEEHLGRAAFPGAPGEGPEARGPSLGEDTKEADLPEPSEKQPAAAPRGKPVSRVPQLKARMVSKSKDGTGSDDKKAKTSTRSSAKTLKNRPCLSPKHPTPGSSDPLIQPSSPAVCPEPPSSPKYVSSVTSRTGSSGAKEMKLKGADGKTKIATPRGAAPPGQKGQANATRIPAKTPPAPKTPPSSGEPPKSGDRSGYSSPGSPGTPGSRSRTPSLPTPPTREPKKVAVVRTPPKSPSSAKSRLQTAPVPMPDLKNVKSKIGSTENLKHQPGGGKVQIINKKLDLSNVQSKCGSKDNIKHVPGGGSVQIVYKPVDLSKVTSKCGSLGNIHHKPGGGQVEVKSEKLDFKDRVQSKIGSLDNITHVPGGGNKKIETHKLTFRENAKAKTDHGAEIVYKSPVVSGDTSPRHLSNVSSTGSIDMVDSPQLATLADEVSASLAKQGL

| SMILES | Potency |
| --- | --- |
| COc1cccc(-c2nc(Nc3ccncc3)c3ccccc3n2)c1 | active: 14.1 µM |
| Cc1cc(NS(=O)(=O)c2ccc(NC(=S)NC(=O)c3ccccc3)cc2)no1 | inactive |
| COc1cccc(-c2nc(OC(C)C)c3ccccc3n2)c1 | inconclusive: 20 µM [inhibitor, partial curve] |
| O=C(Nc1ccccc1N1CCOCC1)c1cccc(NS(=O)(=O)c2ccc(F)c(F)c2)c1 | inconclusive: 17.8 µM [inhibitor, single point] |
| COC(=O)c1cc(=O)c(O)c2c(O)c(O)ccc2c1 | active: 7.94 µM |
| Clc1ccc(Cn2nnc(-c3ccc(N4CCOCC4)cc3)n2)cc1 | inconclusive: 7.94 µM [activator, single point] |
| O=C(Nc1cccnc1)c1cnc2ccccc2n1 | inactive |
| O=S(=O)(c1ccc(N2CCN(c3ccc(F)cc3)CC2)cc1)N1CCCC1 | inconclusive: 11.2 µM [inhibitor, partial curve, poor fit] |
| O=C1c2ccccc2C(=O)C1(c1ccccc1)N1CCN(c2cccc(C(F)(F)F)c2)CC1 | inconclusive: 17.8 µM [inhibitor, partial curve] |
| CCOc1ccccc1NC(=O)CCc1nc(-c2cccc(C)c2)no1 | inactive |
| C/C(=N\NC(=O)Cn1ccc(C(F)(F)F)n1)c1ccco1 | inactive |
| CC1CN(C(=S)NC(=O)C2CCCCC2)CC(C)O1 (stereo not drawn) | inactive |
| C=CC(C1=CC(=O)C(OC)=CC1=O)c1ccccc1 (stereo not drawn) | active: 20 µM |
| Cn1c(SCC(=O)NNC(=O)Cc2ccccc2)nnc1-c1ccc(Cl)cc1 | inconclusive: 7.94 µM [inhibitor, single point] |
| NC(=O)c1ccsc1NC(=O)c1ccc(S(=O)(=O)N2CCCc3ccccc32)cc1 | inconclusive: 10 µM [inhibitor, partial curve] |
| Cc1cc2nc(-c3cccc(NC(=O)COc4ccc(C(C)C)cc4)c3)oc2cc1C | inactive |
| CCN(CC(=O)Nc1c(C(=O)OC)[nH]c2ccccc12)c1ccc2c(c1)OCO2 | inconclusive: 15.8 µM [activator, partial curve, poor fit] |
| Cc1cc(C)cc(S(=O)(=O)c2cnc3ccccc3n2)c1 | inconclusive: 3.55 µM [inhibitor, single point] |
| C/C(N)=C(/C#N)C(=O)COC(=O)c1oc2ccccc2c1COC(C)C | inconclusive: 2.51 µM [inhibitor, partial curve, poor fit] |
| Cn1nc([N+](=O)[O-])c(C(C#N)c2ccccn2)c(Cl)c1=O (stereo not drawn) | inconclusive: 31.6 µM [inhibitor, single point] |
| Cc1cc(Cl)ccc1OCCCC(=O)OCC(=O)c1c(N)n(C)c(=O)n(C)c1=O | inconclusive: 31.6 µM [inhibitor, single point] |

| SMILES | Potency |
| --- | --- |
| COc1ccc2c(c1)c(CC(=O)Nc1ccc(C(C)=O)cc1)c(C)n2C(=O)c1ccc(Cl)cc1 | inconclusive: 17.8 µM [inhibitor, single point] and inconclusive: 12.6 µM [inhibitor, partial curve] |
| Cc1ccc(NC(=O)c2oc3ccccc3c2NC(=O)c2ccc(F)c(F)c2)cc1 | inconclusive: 25.1 µM [inhibitor, partial curve] |
| COc1ccc(S(=O)(=O)NCCS(=O)(=O)N2CCN(c3ccccc3)CC2)cc1OC | inactive |
| COc1cccc(C(=O)NC(=NCCc2c[nH]c3ccc(OC)cc23)Nc2nc(C)cc(C)n2)c1 | inconclusive: 3.16 µM [activator, full curve, poor fit] |
| S=C(NCC1CCCO1)N1CCN(c2nc(-c3ccc(Cl)cc3)cs2)CC1 (stereo not drawn) | inconclusive: 10 µM [activator, partial curve, poor fit] |
| Cc1cc2nc3c(=O)[nH]c(=O)nc-3n(C)c2cc1C=O | inconclusive: 20 µM [inhibitor, partial curve, poor fit] |
| CN1CCc2nc3ccccc3c(C(=O)OCC(=O)N(CCC#N)c3ccccc3)c2C1 | inconclusive: 17.8 µM [inhibitor, single point] |
| Cc1ccc(CNC(=O)CCCCCn2c(=O)c3sccc3n(CC(=O)Nc3ccc(C)c(F)c3)c2=O)cc1 | inconclusive: 11.2 µM [inhibitor, partial curve] |
| CCc1cnc2c(c1SCc1ccccc1C)c(=O)n(C)c(=O)n2C | inconclusive: 17.8 µM [inhibitor, partial curve] |
| CCN(CC)c1ccc(C(=O)N/N=C(\C)c2ccc(O)cc2)cc1 | inactive |
| Cc1ccc(-c2cc(-c3coc4ccc(Cl)cc4c3=O)c3c(n2)-c2ccccc2OC3)cc1 | inconclusive: 15.8 µM [inhibitor, partial curve, poor fit] |
| C[C@@H](C(=O)Nc1ccc2ccccc2c1)[C@H]1C[C@]1(C)[C@H](NS(=O)(=O)c1ccc(-c2ccccc2)cc1)c1ccccc1 | inconclusive: 22.4 µM [inhibitor, partial curve] and inconclusive: 25.1 µM [inhibitor, partial curve] |
| COc1ccc(NC(=O)CCCn2c(=O)c3sccc3n(Cc3ccccc3)c2=O)cc1 | inactive |
| Oc1ccc(/C=N/n2c3ccccc3c3ccccc32)cc1 | inconclusive: 3.16 µM [inhibitor, partial curve] |
| Cc1cccn2c(=O)c(/C=C(\C#N)C(=O)NCc3ccccc3)c(N3CCC(C(N)=O)CC3)nc12 | inconclusive: 39.8 µM [inhibitor, single point] |
| COc1ccc(S(=O)(=O)N2CN(Cc3ccco3)c3nc4ccccc4nc32)cc1 | inconclusive: 22.4 µM [inhibitor, partial curve] |
| O=C1c2ccccc2C(=O)c2cc(S(=O)(=O)Nc3ccccc3)ccc21 | inconclusive: 7.94 µM [activator, single point] |
| CCOc1ccc(NC(=O)CCc2nc3cccnc3n2-c2ccccc2)cc1 | inactive |
| Cc1cc(C)c(NS(=O)(=O)c2cc(-c3onc(C)c3C)ccc2C)c(C)c1 | inconclusive: 20 µM [inhibitor, single point] |
| COc1ccc(-n2nnc(-c3nsc(NC(=O)c4ccc(C)c(C)c4)n3)c2C)cc1Cl | inconclusive: 35.5 µM [inhibitor, partial curve, poor fit] |
| N#CC1=C(N)SC(N)=C(C#N)C1c1cccc(O)c1 | inconclusive: 14.1 µM [inhibitor, partial curve, poor fit] |

| SMILES | Potency |
| --- | --- |
| CC(C)OC(=O)c1ccc(OC(=O)c2cccnc2)cc1 | inconclusive: 0.0224 µM [activator, full curve, poor fit] |
| COc1ccc(CN2CC(=O)N(c3ccccc3C)C2=S)cc1OC | inconclusive: 7.94 µM [inhibitor, single point] |
| CCCc1cc(-c2n[nH]c(C)c2-c2ccc(C(=O)OCC)o2)c(O)cc1O | inconclusive: 3.16 µM [activator, full curve] |
| NC(CCC(=O)N[C@@H](CS)C(=O)NCC(=O)O)C(=O)O (stereo partly drawn) | inconclusive: 31.6 µM [inhibitor, partial curve] |
| COc1ccc(/C=N/Nc2cc(N3CCCC3)nc(N3CCCC3)n2)cc1 | inactive |
| COc1ccc(NC(=O)Cn2c(=O)c3cc(Cl)ccc3n3nncc23)cc1 | inactive |
| COc1ccc(NC(=O)c2cc3n(n2)C(C(F)(F)F)CC(c2ccc4c(c2)OCO4)N3)cc1OC (stereo not drawn) | inconclusive: 20 µM [activator, single point] |
| CC(C)NS(=O)(=O)c1ccc(CCC(=O)NCc2ccco2)cc1 | inconclusive: 44.7 µM [inhibitor, single point] |
| Cc1cccc(N2CCN(C(=O)c3cn4ccccc4n3)CC2C)c1 (stereo not drawn) | inconclusive: 22.4 µM [inhibitor, single point] |
| CC(=O)Nc1ccc(N2C(C(C)=O)=NN(c3ccc(Cl)cc3)C2c2sccc2C)cc1 (stereo not drawn) | inactive |
| COc1ccccc1NC(=O)CSc1nnc(NC(=O)Nc2ccc(C)cc2)s1 | active: 15.8 µM |
| CN(C)CCNC(=O)c1ccc2c(c1)NC(=O)C(CS(=O)(=O)Cc1cccc(Br)c1)N2 (stereo not drawn) | inconclusive: 0.224 µM [inhibitor, full curve, poor fit] |
| Cc1ccc(S(=O)(=O)N2CCCc3cc(NS(=O)(=O)c4cccc(Cl)c4)ccc32)cc1 | inconclusive: 14.1 µM [inhibitor, partial curve] |
| CCOC(=O)N1CCN(c2cc(NCCC(=O)O)c3c4c(onc24)-c2ccccc2C3=O)CC1 | active: 31.6 µM |
| COc1ccc(S(=O)(=O)NCCc2csc3nc(-c4cccc(C)c4)nn23)cc1F | inconclusive: 35.5 µM [inhibitor, single point] |
| CCCCN1C(=O)c2[nH]nc(-c3ccccc3O)c2C1c1ccc(OCc2ccccc2)cc1 (stereo not drawn) | inconclusive: 12.6 µM [inhibitor, partial curve] |
| COc1cc(OC)c(C2CC(=O)N3CN(c4ccc(C)cc4)CSC3=C2C#N)cc1OC (stereo not drawn) | inconclusive: 31.6 µM [inhibitor, partial curve] |
| Nc1sc2c(c1C(=O)NC1CCS(=O)(=O)C1)CCCC2 (stereo not drawn) | inconclusive: 39.8 µM [inhibitor, single point] |
| CCc1ccc(NC(=O)C2CCCN2S(=O)(=O)c2ccc3c(c2)n(C)c(=O)c(=O)n3C)cc1 (stereo not drawn) | inactive |
| CCCOc1ccc(N2C(=O)CC(SC(=N)N3N=C(c4ccccc4)CC3c3ccccc3)C2=O)cc1 (stereo not drawn) | inconclusive: 7.94 µM [inhibitor, partial curve] |
| CC(=O)c1ccc(NC(=O)CSc2nnc3ccc(-c4ccc(Br)cc4)nn23)cc1 | inconclusive: 39.8 µM [inhibitor, single point] |
